The campaign covered roughly 150,000 compounds. About 540 (0.36%) showed an effect of 50% or more. The list shows a part of the results.

The test has as its system Plasmodium falciparum. The test can be described thus: Primary screen in NF54 nanoGlo assay, in single point, at 2uM, 72h; a lower Z score goes with more inhibition. It counts as functional, Erythrocyte. To be noted: timepoint 72 hour.
For `Cc1noc(C)c1[C@H](C)NCc1cc2ccccc2s1`, the % Inhibition – broadly, the drop in the measured response relative to a control, in per cent – is -8% and the Z score worked out at 0.91.
Regarding `COc1ccc(NC(=O)C/C(N)=N/O)cc1`, the “% Inhibition” value is reported as -6% and the Z score is 0.72.
As for `CC(=O)N1CCN(C2CN(Cc3nc(C)c(C)o3)CC2C)CC1` (stereo not drawn), the “% Inhibition” value is given as -11% and the Z score was found to be 1.57.
As for `c1cc2c(cc1-c1noc([C@H]3CCCc4[nH]ncc43)n1)OCO2`, the “% Inhibition” value is given as -15% and the Z score was 2.15.
In the case of `C#CCN(C)S(=O)(=O)Cc1ccc(C)c(F)c1`, the “% Inhibition” value is -1% and the Z score amounted to 0.21.
Take `COc1ccccc1-n1c(=O)n2n(c1=O)CCCC2`: the “% Inhibition” value is 14% and the Z score is -1.45.
The like results for `C[C@H](NC(=O)c1cc2c(s1)CCCCC2)c1nncn1C` were, in that order, -20% and 2.39.
Consider `O=C1[C@@H]2CCCN2C(=O)N1CCCc1ccc(Cl)cc1`, for which the “% Inhibition” value was -11% and the Z score worked out at 1.76.
The like results for `Cc1cc(C)c(C(=O)N2CCC(NC(=O)c3ccncc3)CC2)[nH]1` were, in that order, 3% and -0.27.
The like results for `O=C(c1nc2ccccc2s1)N1C2C=CCC1CC2` (stereo not drawn) were, in that order, -6% and 1.1.
As for `CCCCc1nc(-c2nccn2C[C@H]2CN(C(C)=O)CCO2)c[nH]1`, the “% Inhibition” value was -8% and the Z score is listed as 1.49.
Regarding `CC(C)NC(=O)Cc1cccn1-c1cccc(Cl)c1`, the “% Inhibition” value is reported as -4% and the Z score stood at 0.54.
The like results for `Cc1c(C(=O)N2C[C@H](C)OCC2(C)C)nnn1-c1ccn(C)n1` were, in that order, -12% and 2.27.
`COC(=O)c1ccc2c(c1)CC[C@H](NCc1ccc(C)cn1)C(=O)N2`: the “% Inhibition” value was -18% and the Z score stood at 1.56.
The like results for `Cc1ccc(CN2CC[C@H](O)CC(C)(C)C2)o1` were, in that order, 14% and -1.96.
The like results for `O=C(NCC1CCCCCCC1)c1nc(=O)[nH][nH]1` were, in that order, -14% and 1.36.
The like results for `CCCn1ncc(CN(C)CCOc2cc(C)ccc2C)c1C` were, in that order, -4% and 0.74.
Regarding `COc1cc(NC(=O)N(CC(=O)N2c3ccccc3-n3cccc3[C@H]2c2cccc(Cl)c2)C(C)C)cc(OC)c1`, the “% Inhibition” value is reported as 7% and the Z score is -0.77.
The like results for `CN(C)C(=O)CO[C@H]1COCC[C@@H]1NC(=O)c1n[nH]c2ccccc12` were, in that order, -14% and 1.27.
The like results for `COc1ccc(N2C(=O)[C@@H]3CCCN3[C@H]2c2ccc(OC)c(OC)c2)cc1` were, in that order, 7% and -0.86.
The like results for `Cc1ccccc1CN1CCCN(C(=O)c2csnn2)CC1` were, in that order, 7% and -0.85.
For `C[C@H]1CN(S(=O)(=O)CCCN2C(=O)c3ccccc3C2=O)CCO1`, the “% Inhibition” value is recorded as -8% and the Z score worked out at 1.32.
The like results for `Cc1ccccc1-c1nnc2c3ccccc3nc(N3CCN(C(=O)c4ccco4)CC3)n12` were, in that order, -8% and 1.04.
Regarding `Cc1ccc(CNC(=O)Cn2nc3c4ccc(F)cc4ncn3c2=O)cc1`, the “% Inhibition” value is given as -1% and the Z score was 0.23.
The like results for `Cn1ccnc1CC[C@H]1CCCCN1Cc1noc(C2CCCC2)n1` were, in that order, -22% and 2.15.
The like results for `Cc1cc(=O)n2c3c(c(C#N)c2[nH]1)CCCC3` were, in that order, -9% and 1.07.
As to `Cc1cc(CN2CCN(CC3CCCCC3)[C@@H](CCO)C2)[nH]n1`, the “% Inhibition” value was -4% and the Z score is recorded as 0.6.
For the compound `COC(=O)[C@@H](C)NCc1cc(O)cc(F)c1`, the “% Inhibition” value worked out at 7% and the Z score was -1.24.
Take `C=CCNS(=O)(=O)C1CON(C)C1c1ccc(N(C)C)cc1` (stereo not drawn): the “% Inhibition” value is recorded as -13% and the Z score is listed as 1.49.
The like results for `COC1CCCC(CC(=O)N2CCCC(C(C)(C)C(=O)O)C2)C1` (stereo not drawn) were, in that order, -2% and 0.33.
The like results for `NC(=O)c1ccc(S(=O)(=O)Cl)cc1` were, in that order, -18% and 2.87.
The like results for `O=C(N[C@H]1CCCOCC1)N(Cc1ccccc1)C1CCCCC1` were, in that order, -8% and 1.09.
In the case of `CN(CCO)c1cc2c(F)cccc2cn1`, the “% Inhibition” value came to 1% and the Z score was -0.06.
The like results for `Clc1ccc(-c2cc(-c3cccnc3)nc3ccc4ccccc4c23)cc1` were, in that order, 5% and -0.97.
Take `CCCc1n[nH]cc1C(=O)N1C[C@@H]2CC[C@H]1CN(Cc1cccnc1)C2`: the “% Inhibition” value is -1% and the Z score was 0.19.
The like results for `Cc1nccn1-c1ncc(NC(=O)c2ccc(F)cc2Cl)cn1` were, in that order, -10% and 1.6.
With `COCCC1(NC(=O)C2CCOCC2)CCN(Cc2ccc(O)cc2)CC1`, the “% Inhibition” value was -13% and the Z score turned out to be 1.67.
The like results for `Cc1cccc(N2CCN(C(=O)Cn3nc(C)c4c(C)onc4c3=O)C[C@@H]2C)c1` were, in that order, 8% and -0.94.
The like results for `CCc1nccn1Cc1nc(C2CCCCC2)no1` were, in that order, -26% and 2.33.
The like results for `C[C@@H](CC(=O)N1CC(Nc2ncccn2)C1)c1ccccc1` were, in that order, -12% and 1.44.
In the case of `CCCCN1CCN(C(=O)c2cccc3c2CCN3C(=O)Nc2ccccc2)CC1`, the “% Inhibition” value is -6% and the Z score was 1.03.
`O=C(O)[C@H]1CN(c2cc(C3CC3)ncn2)C[C@@H]1C1CC1`: the “% Inhibition” value is on record as -8% and the Z score was determined as 1.28.
Turning to `CC(C)C[C@H](NC(=O)Nc1cccc(F)c1)C(=O)Nc1cc[nH]n1`, the “% Inhibition” value was -11% and the Z score turned out to be 2.4.
Turning to `CC(C)(C)[C@@H]1NC(=O)CC[C@H]1NC(=O)c1ccc(-n2cnnn2)cc1`, the “% Inhibition” value is given as -14% and the Z score was 1.28.
In the case of `CC(C)C(=O)N1CCC(CN2C[C@@H](C(=O)N3CCOCC3)CC2=O)CC1`, the “% Inhibition” value is recorded as -10% and the Z score came to 1.31.
Take `CC(C)c1csc(CN2C[C@H](C3CC3)[C@@H](N)C2)n1`: the “% Inhibition” value is given as 10% and the Z score is reported as -1.28.
The like results for `CS(=O)(=O)[C@H]1CCCN(C(=O)c2ccc3[nH]ncc3c2)CC1` were, in that order, -1% and 0.12.
The like results for `CN1CCCN(S(=O)(=O)c2cccnc2)c2cc(F)ccc21` were, in that order, -13% and 2.4.
The like results for `COc1ccc(NC(=O)Cn2c(C)ncc(-c3nc(-c4ccccc4)cs3)c2=O)cc1` were, in that order, -2% and 0.33.
For the compound `COCCN1C[C@@H](c2nc(C(=O)OC)c(C)[nH]2)CC1=O`, the “% Inhibition” value is 2% and the Z score is -0.41.
The like results for `Cc1ccc([C@H](CNC(=O)COc2c(C)cccc2C)N(C)C)o1` were, in that order, -5% and 0.83.
The like results for `Cc1cc(C)n(CCN(C)C(=O)C2(C)COC2)n1` were, in that order, 5% and -0.81.
The like results for `CCCCC(=O)N1CCC(N(Cc2ccc(Cl)cc2)C(=O)CN(CCOC)S(=O)(=O)CCC)CC1` were, in that order, -2% and 0.31.
As for `CCOC(=O)[C@H]1CCCN(C(=O)c2c[nH]c(C(=O)N3CCCC3)c2)C1`, the “% Inhibition” value is given as 15% and the Z score is -1.87.
